# Laboratory results taken from article PMC4336329 (PLoS ONE, 2015).
# Screen size: about 310,000 compounds; about 14,000 (4.5%) showed an effect of 50% or more. The effect is printed as a negative number. This is one part of the list.
# Target: human ether-à-go-go-related gene (hERG) potassium channel (human, UniProt Q12809)
# Test: primary screen, population patch clamp on CHO cells stably expressing hERG
# 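Also: peak tail current of the secondary pulse compared with the same well before compound.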
# Sequence of human ether-à-go-go-related gene (hERG) potassium channel (Q12809 whole entry, looked up): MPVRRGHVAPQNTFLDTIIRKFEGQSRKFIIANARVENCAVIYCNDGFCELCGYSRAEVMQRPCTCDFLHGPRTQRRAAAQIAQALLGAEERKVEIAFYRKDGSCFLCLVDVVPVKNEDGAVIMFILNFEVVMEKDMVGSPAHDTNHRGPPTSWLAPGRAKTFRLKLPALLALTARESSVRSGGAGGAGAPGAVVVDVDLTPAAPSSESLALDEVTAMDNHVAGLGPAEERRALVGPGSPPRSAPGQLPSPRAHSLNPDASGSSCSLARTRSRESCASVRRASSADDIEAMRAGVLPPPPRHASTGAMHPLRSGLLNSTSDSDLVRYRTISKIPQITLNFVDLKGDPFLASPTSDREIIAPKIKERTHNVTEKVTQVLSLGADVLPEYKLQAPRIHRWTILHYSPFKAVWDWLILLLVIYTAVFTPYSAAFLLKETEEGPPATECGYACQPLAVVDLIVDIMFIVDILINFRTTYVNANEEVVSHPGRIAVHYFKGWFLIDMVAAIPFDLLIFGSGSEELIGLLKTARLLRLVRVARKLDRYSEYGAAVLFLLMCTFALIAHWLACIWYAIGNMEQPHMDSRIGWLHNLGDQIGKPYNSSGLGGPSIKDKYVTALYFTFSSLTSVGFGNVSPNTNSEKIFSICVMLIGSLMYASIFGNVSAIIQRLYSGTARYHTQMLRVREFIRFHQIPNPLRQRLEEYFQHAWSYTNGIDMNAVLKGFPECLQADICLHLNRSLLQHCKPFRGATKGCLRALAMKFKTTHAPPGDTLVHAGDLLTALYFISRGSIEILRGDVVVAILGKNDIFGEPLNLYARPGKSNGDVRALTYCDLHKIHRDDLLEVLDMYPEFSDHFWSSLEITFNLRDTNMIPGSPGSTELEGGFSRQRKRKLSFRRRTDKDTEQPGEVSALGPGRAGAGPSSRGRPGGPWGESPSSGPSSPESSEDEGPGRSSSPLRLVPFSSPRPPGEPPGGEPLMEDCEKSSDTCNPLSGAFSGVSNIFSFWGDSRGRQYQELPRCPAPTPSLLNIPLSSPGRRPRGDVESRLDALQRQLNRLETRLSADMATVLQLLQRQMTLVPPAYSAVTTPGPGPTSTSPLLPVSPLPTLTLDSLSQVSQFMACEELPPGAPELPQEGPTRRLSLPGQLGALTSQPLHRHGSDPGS
row,SMILES,"hERG current change (%, negative = inhibition) at 10uM [%]"
1,Cc1nonc1NC(=O)c1oc2ccc(F)cc2c1C,-6.41
2,COc1ccc(N2C(S)=C(C#N)C(=O)NC23CCCCC3)cc1,32.7
3,COc1cc(CNCCCO)ccc1OCC(=O)NC(C)(C)C,19.8
4,COc1ccccc1CNc1ccccc1F,12.6
5,O=C(Nc1cccc(O)c1)c1ccc(Br)c(S(=O)(=O)N2CCCCC2)c1,5.52
6,COc1ccc(C(=O)Nc2c(-c3ccccc3)nc3ccccn23)c(OC)c1,11.3
7,CCc1c(C)sc(NC(=O)C2CC(c3c(F)cccc3Cl)=NO2)c1C#N (stereo not shown),15.4
8,COc1ccc(CN2CCNC(=O)C2CC(=O)N2CCCN(C(C)=O)CC2)c(OC)c1 (stereo not shown),15.1
9,CCN(CC)Cc1ccccn1.Cl,9.79
10,COC(=O)Cc1nc(NC(=O)c2cccs2)sc1C,22.7
11,CCOC(=O)c1cnn(CCOC(=O)c2ccc(F)cc2)c1NC(=O)c1ccc(F)cc1,-19.4
12,Cc1occc1-c1nnc(SCC(=O)N2CCOCC2)n1CC(C)C,1.02
13,O=C(Nc1cccc(Cl)c1Cl)Nn1cnnc1,20.4
14,O=c1cnn(-c2ccc(Cl)cc2Cl)c(-c2ccccc2)c1,9.04
15,COC(=O)C1=C(c2ccc(OC)c(OC)c2)C[C@@H]2CC[C@H]1N2C(=O)N1CCC(O)CC1,21.4
16,CN1C(=O)c2cccc(NC(=O)C3CCCCC3)c2C1=O,-28.9
17,CCCn1c(CN(Cc2ccccc2)Cc2ccccc2)nc2c1c(=O)n(C)c(=O)n2C,-9.51
18,CCOc1cc(/C=C2\SC(N3CCCC(C)C3)=NC2=O)ccc1O (stereo not shown),1.31
19,Cc1cc(=O)n(C)c(=O)n1CC(=O)N1CCCCCC1,15.9
20,COc1cc(S(=O)(=O)N2CCOCC2)ccc1NC(=O)COC(=O)COc1ccccc1,-6.01
21,Cc1ccccc1Cn1ccc(NC(=O)c2cnn3cccnc23)n1,-10.3
22,COc1ccc(/C=N/NC(=O)CN(C)S(=O)(=O)c2ccc(NC(C)=O)cc2)cc1,-6.61
23,COc1ccc(CCNC(=O)CC(=O)N/N=C/c2ccc(Br)cc2)cc1OC,3.87
24,CN(C)S(=O)(=O)c1cccc(C(=O)Nc2cc(Cl)ccc2O)c1,-23.1
25,CCOc1ccc(-c2nnn(CC(=O)N3CCCC(C)C3)n2)cc1 (stereo not shown),-20.2
